The subject of one assay is HSkMC. The assay can be described thus: cytotoxicity call (relative viability < 0.9). The settings on record: 10 µM.
For another assay, the system named is HepG2. The assay can be described thus: cytotoxicity call (relative viability < 0.9). The settings on record: 10 µM.
Another assay deals with S. aureus RN4220. The assay can be described thus: growth inhibition call (relative growth <= 0.2). The conditions noted are these: 50 µM.

The structures appear in SMILES notation. The list shows a part of the results.

On to `C[C@H]1CN([C@@H](C)CO)C(=O)CCCn2nncc2CO[C@@H]1CN(C)S(=O)(=O)c1ccc(-n2cccn2)cc1`, for which the cytotoxicity call with HSkMC and in the assay with HepG2 was “inactive” each time. Also, in the assay on S. aureus RN4220, the growth inhibition call is “inactive”.

With `C[C@H](C(=O)N(C)C[C@H]1OCc2ccccc2-c2c(n(C)c3ccccc23)C(=O)N([C@@H](C)CO)C[C@H]1C)c1ccccc1`, the cytotoxicity call with HSkMC and in the assay with HepG2 was “inactive” each time. Moreover, in the assay on S. aureus RN4220, the growth inhibition call is “inactive”.

In the case of `O=C(CN1CCOCC1)N[C@H]1CC[C@H](CCNS(=O)(=O)c2ccccc2F)O[C@H]1CO`, the cytotoxicity call with HSkMC and in the assay on HepG2 was “inactive” each time. Moreover, the growth inhibition call with S. aureus RN4220 is “inactive”.

As for `C[C@@H]1CN([C@@H](C)CO)C(=O)Cc2cc(NS(=O)(=O)c3ccc(Cl)cc3)ccc2O[C@@H]1CN(C)S(=O)(=O)c1cn(C)cn1`, the cytotoxicity call in the assay with HSkMC and in the assay with HepG2 was “inactive” throughout. The growth inhibition call with S. aureus RN4220 was “inactive”.

As for `C[C@@H]1CCCCO[C@H](CN(C)C(=O)Nc2ccc(F)cc2)[C@H](C)CN([C@H](C)CO)C(=O)c2cc(NC(=O)C3CCCCC3)ccc2O1`, the cytotoxicity call in the assay on HSkMC and in the assay on HepG2 was “inactive” in each case. The growth inhibition call in the assay with S. aureus RN4220 is “inactive”.

Regarding `CC(CS)C(=O)N1CCCC1C(=O)O` (configuration not stated), the cytotoxicity call in the assay with HSkMC and in the assay on HepG2 was “inactive” throughout. Also, the growth inhibition call in the assay on S. aureus RN4220 is “inactive”.

On to `O=c1c2ccccc2oc2ccccc12`, for which the cytotoxicity call in the assay on HSkMC and with HepG2 was “inactive” each time. Further, the growth inhibition call in the assay with S. aureus RN4220 is “inactive”.

Take `C[C@H](CO)N1C[C@H](C)[C@@H](CN(C)C(=O)C2CCOCC2)Oc2cc(-c3ccc(C(=O)N(C)C)cc3)ccc2S1(=O)=O`: the cytotoxicity call in the assay with HSkMC and with HepG2 was “inactive” each time. Moreover, the growth inhibition call with S. aureus RN4220 was “inactive”.

For `CN1C(=O)c2cc(NS(=O)(=O)c3ccc(F)cc3)ccc2OC[C@@H]2O[C@H](CC(=O)NCC(F)(F)F)CC[C@H]21`, the cytotoxicity call with HSkMC and with HepG2 was “inactive” in each case. The growth inhibition call in the assay with S. aureus RN4220 is “inactive”.

`COC(=O)[C@@H](C)N(C#N)c1nc(C)cc(C)n1`: the cytotoxicity call with HSkMC and in the assay with HepG2 was “inactive” each time. Also, the growth inhibition call in the assay with S. aureus RN4220 is “inactive”.

In the case of `Cc1noc(C)c1NC(=O)Nc1ccc2c(c1)CC(=O)N([C@H](C)CO)C[C@H](C)[C@H](CN(C)S(=O)(=O)c1c(C)noc1C)O2`, the cytotoxicity call with HSkMC and with HepG2 was “inactive” each time. Also, in the assay with S. aureus RN4220, the growth inhibition call is “inactive”.

`COc1ccc(NC(=O)Nc2ccc3c(c2)C(=O)N([C@H](C)CO)C[C@H](C)[C@@H](CN(C)Cc2ccc(-c4ccccc4)cc2)O3)cc1`: the cytotoxicity call in the assay on HSkMC and in the assay with HepG2 was “inactive” throughout. Also, in the assay with S. aureus RN4220, the growth inhibition call is “inactive”.

For `COCC(=O)N1C[C@@H](C)[C@@H](OC)CN(C)C(=O)c2cc(NC(=O)Nc3cccc(F)c3)ccc2OC[C@H]1C`, the cytotoxicity call with HSkMC and in the assay on HepG2 was “inactive” each time. Also, the growth inhibition call in the assay with S. aureus RN4220 is “inactive”.

In the case of `C[C@H](C(=O)O)N1CCCC1=O`, the cytotoxicity call in the assay on HSkMC and with HepG2 was “inactive” throughout. Also, in the assay on S. aureus RN4220, the growth inhibition call is “inactive”.

In the case of `Cc1ccc(S(=O)(=O)c2c[nH]c(=O)[nH]2)cc1`, the cytotoxicity call with HSkMC and in the assay with HepG2 was “inactive” throughout. For the same compound, the growth inhibition call in the assay on S. aureus RN4220 was “inactive”.

Regarding `O[C@H]([C@H](O)[C@@H]1CO1)[C@H]1CO1`, the cytotoxicity call in the assay with HSkMC and in the assay with HepG2 was “inactive” throughout. Besides, in the assay on S. aureus RN4220, the growth inhibition call was “inactive”.

Turning to `C[C@@H]1CN([C@@H](C)CO)C(=O)c2cc(NC(=O)Nc3ccccc3)ccc2O[C@H]1CN(C)Cc1ccc(Oc2ccccc2)cc1`, the cytotoxicity call with HSkMC is “inactive”. In addition, the cytotoxicity call with HepG2 is “active”. Besides, the growth inhibition call with S. aureus RN4220 was “inactive”.

Regarding `Nc1ncnc2c1c(-c1ccc(Cl)cc1)nn2-c1cccc(-c2cnnn2Cc2cccc(-c3ccccc3)c2)c1`, in the assay on HSkMC, the cytotoxicity call is “active”. Also, the cytotoxicity call in the assay with HepG2 was “inactive”. In the assay on S. aureus RN4220, the growth inhibition call was “inactive”.

`Cc1noc(C)c1NC(=O)N(C)C[C@H]1Oc2c(NC(=O)NC(C)C)cccc2C(=O)N([C@@H](C)CO)C[C@H]1C`: the cytotoxicity call in the assay with HSkMC and in the assay with HepG2 was “inactive” throughout. Further, the growth inhibition call in the assay on S. aureus RN4220 was “inactive”.

For `O=C(O)CCCCC1CCSS1` (configuration not stated), the cytotoxicity call in the assay on HSkMC and in the assay on HepG2 was “inactive” in each case. Also, the growth inhibition call in the assay with S. aureus RN4220 is “inactive”.

In the case of `C[C@@H]1CCCCO[C@H](CN(C)C(=O)Nc2ccc(F)cc2)[C@@H](C)CN([C@@H](C)CO)C(=O)c2cc(NS(=O)(=O)c3ccc(Cl)cc3)ccc2O1`, the cytotoxicity call in the assay on HSkMC is “inactive”. Moreover, the cytotoxicity call in the assay with HepG2 is “active”. Moreover, the growth inhibition call in the assay with S. aureus RN4220 is “inactive”.

On to `C[C@H]1CN([C@@H](C)CO)S(=O)(=O)c2ccc(C#Cc3ccccc3)cc2O[C@@H]1CN(C)C(=O)c1ccccn1`, for which the cytotoxicity call in the assay on HSkMC and in the assay with HepG2 was “inactive” in each case. The growth inhibition call with S. aureus RN4220 is “inactive”.

As to `COc1cc([C@@H](O)C(=O)O)ccc1O`, the cytotoxicity call in the assay with HSkMC and with HepG2 was “inactive” each time. The growth inhibition call in the assay on S. aureus RN4220 is “inactive”.

For the compound `Cc1noc(C)c1NC(=O)N(C)C[C@@H]1Oc2ccc(NS(=O)(=O)c3cn(C)cn3)cc2C(=O)N([C@@H](C)CO)C[C@H]1C`, the cytotoxicity call in the assay with HSkMC and in the assay with HepG2 was “inactive” throughout. Further, the growth inhibition call with S. aureus RN4220 was “inactive”.

`C[C@H](CO)N1C[C@H](C)[C@H](CN(C)S(=O)(=O)c2ccc(F)cc2)OCCCC[C@H](C)Oc2ccc(NC(=O)c3ccccc3)cc2C1=O`: the cytotoxicity call in the assay on HSkMC and with HepG2 was “inactive” in each case. Moreover, the growth inhibition call with S. aureus RN4220 was “inactive”.

`COc1ccc(S(=O)(=O)N(C)C[C@@H]2Oc3ccc(NS(=O)(=O)c4ccc(C)cc4)cc3CC(=O)N([C@H](C)CO)C[C@H]2C)cc1`: the cytotoxicity call in the assay with HSkMC and with HepG2 was “inactive” throughout. In addition, the growth inhibition call in the assay with S. aureus RN4220 was “inactive”.

As for `O=C(C[C@H]1C[C@@H]2c3cc(NC(=O)Nc4ccc(C(F)(F)F)cc4)ccc3O[C@@H]2[C@H](CO)O1)NCc1cc(F)ccc1F`, the cytotoxicity call in the assay with HSkMC and in the assay on HepG2 was “inactive” each time. For the same compound, the growth inhibition call in the assay on S. aureus RN4220 was “inactive”.

As for `CC(C)(C)[S@@](=O)N1Cc2cc(C(=O)NCc3ccncc3)nc(-c3cccc(-c4ccc(C#N)cc4)c3)c2[C@H]1CCO`, the cytotoxicity call in the assay on HSkMC (human skeletal muscle cells) and in the assay on HepG2 was “inactive” in each case. In the assay with S. aureus RN4220, the growth inhibition call was “inactive”.

Take `CC(C)NC(=O)N(C)C[C@H]1OCCCC[C@@H](C)Oc2ccc(NC(=O)Nc3ccccc3)cc2C(=O)N([C@H](C)CO)C[C@@H]1C`: the cytotoxicity call in the assay with HSkMC and with HepG2 was “inactive” in each case. The growth inhibition call with S. aureus RN4220 is “inactive”.

The record behind these values is the antibiotic and cytotoxicity screens of Wong et al. (2023).
